Reference: ChEMBL document CHEMBL5303300, “EUbOPEN Chemogenomics Library - Multiplex” (2023)
Certain results were filed several times, with different values. The list is limited to them. An entry can have further records. The records of an entry repeat one measurement (runs, samples, wells, individuals or studies).

Tested on: U2OS
Assay: Multiplex assay against U2OS
Format: toxicity, cell-based
Details: human, number of replicates 2
Method in brief: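 Live cells were stained at seeding with Hoechst33342, BioTracker Green Microtubule Cytoskeleton Dye, MitoTracker Red and Annexin V Alexa Fluor 680. Following compound addition, they were imaged on a CQ1 microscope at 37°C and 5% CO2 and gated by CellPathfinder machine learning into Hoechst high-intensity objects or normal cells, with normal cells split into healthy, pyknosed or fragmented nuclei and pyknosed cells into mitotic or apoptotic. Tubulin, mitochondrial-mass and membrane-permeability phenotypes are per cents of healthy-nucleus cells.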

[1] = 12 h, 1 µM, compound concentration 1 uM
[2] = 12 h, 10 µM, compound concentration 10 uM
[3] = 24 h, 1 µM, compound concentration 1 uM
[4] = 24 h, 10 µM, compound concentration 10 uM
[5] = 48 h, 1 µM, compound concentration 1 uM
[6] = 48 h, 10 µM, compound concentration 10 uM

Row | Structure (SMILES) | Total Cell Count [1] | Population Fragmented Nuclei (%) [2] | Total Cell Count [2] | Total Cell Count [3] | Total Cell Count [4] | Population Fragmented Nuclei (%) [5] | Total Cell Count [5] | Total Cell Count [6] | Population Fragmented Nuclei (%) [1] | Population Fragmented Nuclei (%) [6] | other results
1 | CCn1c(-c2nonc2N)nc2cncc(C(=O)N3CC[C@H](N)C3)c21.Cl | 30 and 221 | 22% and 4% | 49 and 187 | 35 and 280 | 58 and 244 | 18% and 3% | 53 and 573 | 78 and 354 | – | – | Population Mitotic Cells (%) [1]: 50% and 10%; Population Mitotic Cells (%) [3]: 20% and 3%
2 | Cc1cc(NC(=O)c2cccc(NC(=O)/C=C/CN(C)C)c2)ccc1Nc1nccc(-c2cccnc2)n1 | 43 and 217 | – | 42 and 156 | 50 and 302 | 48 and 155 | – | 65 and 492 | 48 and 147 | 39% and 5% | 20% and 6% | Population Fragmented Nuclei (%) [3]: 34% and 7%; Population Mitotic Cells (%) [3]: 66% and 13%
3 | COc1cccc(Cn2cc(C(=O)Nc3ccc(C)c(S(=O)(=O)N4CCOCC4)c3)c(-c3ccc(C)cc3)n2)c1 | 28 and 125 | 16% and 3% | 37 and 200 | 29 and 160 | 39 and 233 | 24% and 4% | 41 and 305 | 289 and 37 | 32% and 9% | – | Population Membrane Permeable-Phenotype (%) [3]: 21% and 6%; Population Mitochondria Different-Phenotype (%) [4]: 5% and 24%
4 | CN1CCN(c2ccc(-n3cc(-c4ccncc4OCC4CCNCC4)cn3)cc2)CC1 | 46 and 193 | 34% and 10% | 59 and 214 | 63 and 280 | 64 and 222 | 37% and 4% | 108 and 467 | – | 34% and 6% | 42% and 9% | Population Mitotic Cells (%) [1]: 0% and 28%; Population Fragmented Nuclei (%) [3]: 26% and 3%; Population Mitotic Cells (%) [5]: 45% and 13%
5 | CCn1ccc(Nc2ncc3c(n2)-c2c(nn(C)c2-c2ccc(-c4cnn(C)c4)cc2Cl)CC3)n1 | 262 and 33 | – | 32 and 236 | 344 and 45 | 36 and 285 | 2% and 13% | 590 and 61 | 45 and 292 | – | – | Population Membrane Permeable-Phenotype (%) [1]: 1% and 14%; Population Fragmented Nuclei (%) [3]: 4% and 17%; Population Membrane Permeable-Phenotype (%) [3]: 2% and 13%; Population Mitotic Cells (%) [5]: 36% and 0%
6 | COc1ncc(-c2cc(-c3ncc(CN4C[C@@H](C)O[C@@H](C)C4)o3)c3cn[nH]c3c2)cc1NS(C)(=O)=O | 273 and 43 | 21% and 4% | 57 and 201 | 337 and 53 | 53 and 234 | – | 562 and 66 | 68 and 267 | – | 19% and 6% | Population Fragmented Nuclei (%) [4]: 24% and 7%
7 | CC1=C(C)C(=O)C(C(C)(C)CC(=O)N(CCCCSC[C@H]2O[C@@H](n3cnc4c(N)ncnc43)[C@H](O)[C@@H]2O)Cc2cccc(-c3ccc(Cl)cc3)c2)=C(C)C1=O | 257 and 40 | – | 36 and 225 | 358 and 58 | 26 and 246 | – | 86 and 746 | 37 and 300 | – | 16% and 5% | Population Fragmented Nuclei (%) [4]: 15% and 4%; Population Mitotic Cells (%) [5]: 0% and 60%
8 | CS(=O)(=O)c1ccc(C(=O)Nc2cccc(COc3ccc(Br)cc3CN3CC[C@@H](O)C3)c2)c(Cl)c1.O=CO | 31 and 148 | – | 43 and 226 | 32 and 201 | 47 and 251 | – | 54 and 356 | 51 and 335 | – | – | Population Mitotic Cells (%) [5]: 40% and 12%
9 | CS(=O)(=O)c1ccc(C(=O)Nc2cc(F)cc(COc3ccc(Br)cc3CN3CC[C@H](O)C3)c2)c(Cl)c1.O=CO | 56 and 182 | – | 41 and 208 | 268 and 64 | 40 and 242 | – | 98 and 427 | 36 and 270 | – | – | –
10 | CS(=O)(=O)c1ccc(C(=O)Nc2cccc(COc3ccc(Br)cc3CN3CC[C@H](O)C3)c2)cc1.O=CO | 50 and 243 | – | 29 and 241 | 62 and 337 | 43 and 276 | – | 104 and 603 | 48 and 349 | – | – | Population Mitotic Cells (%) [1]: 0% and 27%; Population Mitotic Cells (%) [2]: 0% and 29%
11 | CCN1CCN(Cc2ccc(C(=O)Nc3ccc(C)c(Oc4ccc5c(c4)CC(=O)N5)c3)cc2C(F)(F)F)CC1.Cl.Cl | 176 and 32 | – | 53 and 250 | 39 and 235 | 62 and 298 | – | 62 and 415 | 52 and 316 | 5% and 16% | – | –
12 | CS(=O)(=O)c1ccc(C(=O)Nc2cccc(COc3ccc(Br)cc3CN3CCC[C@H](O)C3)c2)c(Cl)c1.O=CO | 19 and 185 | – | 39 and 203 | 31 and 237 | 41 and 229 | – | 47 and 430 | 46 and 305 | – | – | –
13 | CS(=O)(=O)c1ccc(NC(=O)c2cccc(COc3ccc(Br)cc3CNCCO)c2)c(Cl)c1.O=CO | 42 and 201 | – | 40 and 193 | 53 and 271 | 51 and 222 | – | 71 and 361 | 43 and 253 | – | – | –
14 | CCNc1ccc(-c2nn(-c3ccccc3C)c3c2C(C)Cc2nc(NC(=O)OC)sc2-3)cn1.O=C(O)C(F)(F)F (stereo not given) | – | – | 28 and 229 | – | 37 and 203 | – | – | 30 and 182 | – | 56% and 9% | Population Mitochondria Different-Phenotype (%) [2]: 0% and 46%; Population Fragmented Nuclei (%) [4]: 51% and 14%; Population Mitochondria Different-Phenotype (%) [6]: 0% and 68%
15 | CS(=O)(=O)c1ccc(C(=O)Nc2cccc(COc3ccc(Br)cc3CN[C@H]3CCC[C@@H]3O)c2)c(Cl)c1.O=CO | 32 and 221 | – | 214 and 55 | 49 and 268 | 53 and 247 | – | 65 and 433 | 67 and 303 | – | – | –
16 | COc1nc2ccc([C@@](O)(c3ccc(Cl)cc3)c3cncn3C)cc2c(Cl)c1Cc1ccc(-n2cccn2)cc1 [JNJ-53721590] | 30 and 157 | – | 240 and 55 | 35 and 216 | 265 and 48 | 2% and 19% | 370 and 42 | 70 and 284 | 26% and 3% | 28% and 7% | Population Apoptotic (%) [1]: 20% and 82%; Population Mitotic Cells (%) [1]: 80% and 17%; Population Mitotic Cells (%) [4]: 20% and 63%; Population Membrane Permeable-Phenotype (%) [5]: 2% and 17%; Population Tubulin-Different-Phenotype (%) [5]: 59% and 13%
17 | COc1ccc(-c2cc3c(C)nc(N)nc3n([C@H]3CC[C@H](OCCO)CC3)c2=O)cn1 [PF-04691502] | 33 and 303 | – | 33 and 157 | 36 and 392 | 143 and 41 | – | 50 and 414 | 36 and 147 | 36% and 8% | – | –
18 | C=CC(=O)Nc1ccc2[nH]c(=O)n(C3CCN(Cc4ccc(-c5ccc6c(c5)NC(=O)CO6)cc4)CC3)c2c1 [RL2578] | 36 and 210 | – | 38 and 313 | 45 and 284 | 52 and 342 | 15% and 2% | 73 and 576 | 52 and 444 | – | – | Population Apoptotic (%) [1]: 20% and 79%; Population Membrane Permeable-Phenotype (%) [1]: 12% and 1%; Population Mitotic Cells (%) [1]: 80% and 20%; Population Mitochondria Different-Phenotype (%) [4]: 7% and 37%
19 | C[C@@H](OC[C@@]1(c2ccccc2)CC[C@]2(CCC(=O)N2)CN1)c1cc(C(F)(F)F)cc(C(F)(F)F)c1 [ROLAPITANT] | 34 and 274 | 5% and 21% | 271 and 28 | 40 and 386 | 374 and 36 | – | 73 and 760 | 822 and 52 | – | – | Population Mitotic Cells (%) [3]: 0% and 47%; Population Fragmented Nuclei (%) [4]: 2% and 16%; Population Tubulin-Different-Phenotype (%) [6]: 90% and 29%
20 | Cc1c(C(=O)Nc2ccc(N3C[C@@H](C)O[C@@H](C)C3)nc2)cccc1-c1ccc(OC(F)(F)F)cc1 [SONIDEGIB] | 38 and 232 | 26% and 3% | 34 and 218 | 41 and 356 | 39 and 300 | 33% and 2% | 51 and 739 | 81 and 683 | 31% and 6% | 19% and 2% | Population Apoptotic (%) [2]: 0% and 45%; Population Fragmented Nuclei (%) [3]: 26% and 5%; Population Fragmented Nuclei (%) [4]: 28% and 2%
